According to PubChem BioAssay (NCATS):
Several values for one entry are separate records, joined by “and”; a condition that tells them apart may be missing. Equal values may be shown once. The inconclusive results got no clear call from the source; some entries with a clear call stand among them for comparison. For some assays here: Potencies beside an inconclusive call are fits to weak or partial responses and may not hold up. Activity calls are given as the source filed them. Unless noted, calls come from the whole dose curve; as a rule, active = well fitted curve in either direction with a large enough effect (not every such curve was filed as active); inconclusive = small, poorly fitted or top-dose-only effect, or another doubt; inactive = flat fitted curve, though single readings scatter.

Tests used:
[1] = Cell Viability - BJ (AID 421; calls by dose curve;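 note: potency is the fitted concentration of half-maximal effect; cells exposed to compound for 40 hours at 37 °C before readout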); settings: BJ fibroblast viability, qHTS
Outline: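 Cytotoxicity as drop in intracellular ATP (CellTiter-Glo, 20 min RT) after 40 hr compound exposure of BJ fibroblasts at 37 °C. Titrations scaled between DMSO and 100 uM tamoxifen, Hill-fitted for AC50.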

[2] = AP1 Signaling Pathway (AID 357); settings: ME-180 AP-1-bla reporter, EGF-induced, beta-lactamase ratio, 5 h;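 note: ME-180 reporter cells stimulated with EGF at its EC50 level; top concentration of the series differs between compounds; % is set by controls: 0 for no effect and ±100 for the full control effect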
Outline: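 Titration-series screen for positive or negative modulators of EC50 EGF-induced signaling in ME-180 cells carrying an AP-1-driven beta-lactamase reporter. After 5 hours at 37 degrees Celsius, CCF4 460nm/530nm emission ratio gave %Activity; AC50 values derived.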

[3] = NFAT Signaling Pathway (AID 444); settings: Jurkat NFAT-bla M1, carbachol, beta-lactamase ratio, 5 h;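 note: carbachol stimulus at about its EC50 of 1 µM final; % is set by controls: 0 for no effect and ±100 for the full control effect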
Outline: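 Read-out: CCF4 FRET ratio (460 nm/530 nm) after 1 h RT dye loading, used for %activity and AC50 from titration series. Cells: Jurkat NFAT-β-lactamase/M1 line, treated with compound plus 1 uM carbachol for 5 h, 37 °C.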

[4] = Stat Signaling Pathway (AID 446); settings: ME-180 (cervical carcinoma) SIE beta-lactamase reporter, IL-6 stimulated, 5 h;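 note: ME-180 cervical cancer cells given 40 pM IL-6 alongside compound; SIE-controlled beta-lactamase reporter measured as 460/530 nm FRET emission ratio; top concentration of the series differs between compounds; % is set by controls: 0 for no effect and ±100 for the full control effect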
Outline: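 FRET read-out (405 nm excitation, 460/530 nm emission) of a beta-lactamase reporter under a STAT-inducible element in ME-180 cervical carcinoma cells. Cells with compound receive 40 pM IL-6 for 5 h. Values are normalised to AC90 stimulation and AC90 JAK-inhibitor controls.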

[5] = Cell Viability - Jurkat (AID 426;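 active = dose-dependent loss of cell ATP signal giving a full or clear fitted curve, ranked by lower potency value; inconclusive = weak partial curve or response only at the top dose; inactive = no loss of viability signal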;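 note: potency is the fitted concentration of half-maximal effect; cells exposed to compound for 40 hours at 37 °C before ATP read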); settings: qHTS
Outline: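 Luminescent ATP read-out (CellTiter-Glo, 20 min at room temperature) after 40 hr compound exposure at 37 °C of Jurkat E6-1 cells, 5000/well. Decreased ATP taken as cytotoxicity; AC50 from standard Hill equation.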

[6] = Cell Viability - Hek293 (AID 427;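 active = compounds whose dose-response curve shows a full or clear partial loss of cell viability, called from curve shape rather than a numeric limit; inconclusive = weak partial curves or an effect only at the top dose; inactive = no dose-dependent loss of viability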;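 note: potency is the fitted concentration of half-maximal effect; cells exposed to compound for 40 hours at 37 °C before reading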); settings: qHTS
Outline: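 Luminescent ATP content (CellTiter-Glo, 20 min at room temperature) was measured after a 40 hr, 37 °C compound exposure of HEK293 cells. AC50 values came from Hill-equation fits of qHTS concentration-response data normalized to DMSO and 100 uM tamoxifen.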

[7] = Cell Viability - MRC5 (AID 434; calls by dose curve;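 note: potency is the fitted concentration of half-maximal effect; cells exposed to compound for 40 hours at 37 °C; potency reflects cytotoxicity seen as loss of intracellular ATP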); settings: MRC5 lung fibroblast viability, qHTS
Outline: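 AC50 values come from Hill-equation fits of intracellular ATP loss, measured by CellTiter-Glo luminescence. Normal lung fibroblasts (MRC5) had 40 hr compound treatment at 37 C, normalized between DMSO and 100 uM tamoxifen.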

[8] = Cell Viability - HepG2 (AID 433; calls by dose curve;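 note: potency is the fitted concentration of half-maximal effect; potency for ATP loss meaning cytotoxicity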); settings: qHTS
Outline: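 Read-out is luciferase-based quantitation of cellular ATP as a measure of viable HepG2 cells after 40 h treatment at 37 °C. Signal decrease is scaled between DMSO-only and 100 uM tamoxifen controls, with AC50 fitted by the Hill equation.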

[9] = Cell Viability - SK-N-SH (AID 435; calls by dose curve;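 note: potency is the fitted concentration of half-maximal effect; compound exposure lasted 40 h at 37 °C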); settings: SK-N-SH neuroblastoma cell viability qHTS
Outline: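 Luminescent ATP signal served as the viability read-out after 40 hours of compound treatment of human neuroblastoma SK-N-SH cells. Concentration-response data, scaled between DMSO and 100 uM tamoxifen, gave AC50 values by standard Hill modeling.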

[10] = target: Glucocorticoid receptor (Homo sapiens) (UniProt P04150); test: GR-GFP Redistribution (AID 450;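 active = compounds whose dose series gives a full or clear partial fitted curve of increased nuclear translocation; inconclusive = weak partial curve or effect only at the top dose; inactive = no dose-dependent translocation response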; note: potency is the fitted concentration of half-maximal effect); settings: U2OS GR-GFP nuclear translocation, laser cytometry, 2 h
Tags give direction and shape of the fitted curve.

Chain of UniProt P04150 (P04150 whole entry, looked up): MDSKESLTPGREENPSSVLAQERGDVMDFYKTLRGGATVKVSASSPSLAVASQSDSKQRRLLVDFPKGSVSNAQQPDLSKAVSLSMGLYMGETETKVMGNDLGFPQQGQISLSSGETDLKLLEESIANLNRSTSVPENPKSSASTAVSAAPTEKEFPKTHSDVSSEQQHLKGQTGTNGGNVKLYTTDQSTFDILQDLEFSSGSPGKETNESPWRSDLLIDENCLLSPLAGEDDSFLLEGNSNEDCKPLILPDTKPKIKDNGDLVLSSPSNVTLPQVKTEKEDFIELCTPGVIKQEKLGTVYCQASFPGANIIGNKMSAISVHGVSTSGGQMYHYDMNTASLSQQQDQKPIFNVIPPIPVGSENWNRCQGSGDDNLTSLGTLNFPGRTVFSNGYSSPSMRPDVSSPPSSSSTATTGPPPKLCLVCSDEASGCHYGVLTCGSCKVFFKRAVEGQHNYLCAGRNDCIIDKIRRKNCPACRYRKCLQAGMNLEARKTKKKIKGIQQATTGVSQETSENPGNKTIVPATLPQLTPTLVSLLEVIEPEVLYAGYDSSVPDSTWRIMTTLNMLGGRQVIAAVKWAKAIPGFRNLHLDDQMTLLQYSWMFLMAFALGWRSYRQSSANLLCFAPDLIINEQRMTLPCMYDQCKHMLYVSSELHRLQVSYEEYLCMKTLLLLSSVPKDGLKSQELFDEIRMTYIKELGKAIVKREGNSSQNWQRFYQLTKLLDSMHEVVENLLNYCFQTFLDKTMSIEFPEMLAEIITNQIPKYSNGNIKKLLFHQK

With Nc1ccccc1 the Potency [1] was inactive: > 92 µM.
In the case of Cc1nc(-c2ccc(-c3ccc(C(=O)N4CCc5cc6c(cc54)C4(CCN(C)CC4)CO6)cc3)c(C)c2)no1, the activity change, negative = inhibition ([2]; at 38 µM (top of the series)) is reported as inconclusive: -31.2% [inhibitor], the activity change, negative = inhibition ([3]; at 38 µM (top of the series)) is reported as inconclusive: -110% [inhibitor] and the activity, negative = inhibition ([4]; at 38 µM (top of the series)) is reported as inconclusive: -66.6% [inhibitor].
In the case of Clc1ccc(C(c2ccc(Cl)cc2)C(Cl)(Cl)Cl)cc1, the Potency [5] is reported as inconclusive: 126 µM [single point] and the Potency [6] is reported as inconclusive: 94.4 µM [single point].
For [O]=[Cr](=[O])([OH])[O][Cr](=[O])(=[O])[OH], the Potency [1] was active: 19.5 µM and active: 13.4 µM and active: 4.66 µM and the Potency [7] was active: 4.16 µM and active: 11.5 µM and active: 9.77 µM.
In the case of Oc1ccc(Cl)cc1, the Potency [1] is reported as inactive: > 92 µM.
For C[C@]12CCC(=O)C=C1CC[C@@H]1[C@@H]2CC[C@@]2(C)[C@H]1CC[C@]2(C)O, the Potency [5] was inconclusive: 96.4 µM [partial curve] and the Potency [6] was inconclusive: 94 µM [partial curve].
In the case of O=C1C2CC=CCC2C(=O)N1SC(Cl)(Cl)Cl (centres undefined), the Potency [5] is reported as active: 4.24 µM and active: 4.76 µM, the Potency [8] is reported as active: 40.6 µM and active: 37.9 µM and the Potency [9] is reported as active: 27.7 µM and active: 13.2 µM.
For COP(=O)(OC)OC=C(Cl)Cl, the Potency [5] was inconclusive: 72.9 µM [partial curve].
In the case of CC[C@@H](CO)NC(=O)[C@@H]1C=C2c3cccc4c3c(cn4C)C[C@H]2N(C)C1, the activity change, negative = inhibition ([2]; at 17.2 µM (top of the series)) is reported as inactive: 1.27%.
With O=c1[nH]c2ccccc2n1CCCN1CCC(n2c(=O)[nH]c3cc(Cl)ccc32)CC1 the activity change, negative = inhibition ([2]; at 7.69 µM (top of the series)) was inconclusive: 31.9% [activator], the activity change, negative = inhibition ([2]; at 17.2 µM (top of the series)) was inconclusive: 33.9% [activator] and the activity change, negative = inhibition ([2]; at 38 µM (top of the series)) was inconclusive: 52.4% [activator].
With Cc1c(C(=O)c2cccc3ccccc23)c2cccc3c2n1[C@H](CN1CCOCC1)CO3 the activity change, negative = inhibition ([2]; at 38 µM (top of the series)) was inconclusive: -61.3% [inhibitor] and the activity, negative = inhibition ([4]; at 38 µM (top of the series)) was inconclusive: -42.2% [inhibitor].
In the case of OCCCBr, the Potency [6] is reported as inactive: > 92 µM.
With NCC1(CC(=O)O)CCCCC1 the activity change, negative = inhibition ([2]; at 17.2 µM (top of the series)) was inactive: 1.26% and inactive: -6.25%, the activity change, negative = inhibition ([2]; at 38 µM (top of the series)) was inactive: 4.96% and the Potency [10] was inconclusive: 51.5 µM [partial curve].
In the case of Fc1ccc(C(OCCN2CCN(CCCc3ccccc3)CC2)c2ccc(F)cc2)cc1, the activity change, negative = inhibition ([2]; at 17.2 µM (top of the series)) is reported as inconclusive: -35.4% [inhibitor].
In the case of CCCCCCCCCCCC[N+](C)(C)CCOc1ccccc1, the Potency [1] is reported as active: 13.7 µM, the Potency [5] is reported as active: 25.2 µM and the Potency [6] is reported as active: 29.6 µM. The Potency [8] was active: 58.8 µM.
In the case of Clc1ccc(CSC(Cn2ccnc2)c2ccc(Cl)cc2Cl)cc1 (centres undefined), the activity change, negative = inhibition ([2]; at 17.2 µM (top of the series)) is reported as inactive: -21.8% and the activity, negative = inhibition ([4]; at 17.2 µM (top of the series)) is reported as inconclusive: -46.2% [inhibitor].
In the case of C#C[C@]1(O)CC[C@H]2[C@@H]3CCC4=CC(=O)CC[C@]4(C)[C@H]3CC[C@@]21C, the activity change, negative = inhibition ([2]; at 17.2 µM (top of the series)) is reported as inactive: 15.1%, the activity change, negative = inhibition ([3]; at 17.2 µM (top of the series)) is reported as inactive: 2.09% and the Potency [10] is reported as active: 0.338 µM.
For CC(C)NC(C)C, the Potency [6] was inactive: > 92 µM.
In the case of O=c1[nH]c2ccccc2n1C1CCN(CCCC(c2ccc(F)cc2)c2ccc(F)cc2)CC1, the activity change, negative = inhibition ([2]; at 17.2 µM (top of the series)) is reported as inconclusive: -41.4% [inhibitor] and inconclusive: -58.3% [inhibitor], the activity change, negative = inhibition ([2]; at 38 µM (top of the series)) is reported as inconclusive: -43.3% [inhibitor] and the activity, negative = inhibition ([4]; at 17.2 µM (top of the series)) is reported as inconclusive: -34.5% [inhibitor] and inconclusive: -33.8% [inhibitor]. For the same compound, the activity, negative = inhibition ([4]; at 38 µM (top of the series)) was inconclusive: -41.1% [inhibitor].
In the case of CCC1(CC)C(=O)C=CNC1=O, the activity change, negative = inhibition ([2]; at 17.2 µM (top of the series)) is reported as inactive: 2.12%.
In the case of O=C(CCCN1CCC2(CC1)C(=O)NCN2c1ccccc1)c1ccc(F)cc1, the activity change, negative = inhibition ([2]; at 17.2 µM (top of the series)) is reported as inconclusive: 32.4% [activator], the activity change, negative = inhibition ([2]; at 38 µM (top of the series)) is reported as inconclusive: 43.9% [activator] and the Potency [10] is reported as inconclusive: 43.8 µM [single point].
